Experimental data: the supplement of paper PMC9446081
In all, about 39,000 compounds went through this assay and about 220 (0.56%) showed activity. The list shows a part of the results.

test system: Escherichia coli K-12 BW25113; assay: relative growth (OD600 normalised to plate interquartile mean) (fraction); higher = less growth inhibition, active = 0.2 or less; conditions: 50 µM; LB; incubation time: overnight (16-24 h)
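Note: static incubation at 37 °C against the wild-type strain, values averaged over two biological replicates.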

| SMILES | relative growth |
| --- | --- |
| C[C@@H]1CN([C@@H](C)CO)C(=O)c2cccc(NC(=O)C3CCOCC3)c2O[C@H]1CN(C)C(=O)Nc1ccc2c(c1)OCO2 | inactive: 1 |
| COc1ccc(S(=O)(=O)Nc2ccc3c(c2)C(=O)N([C@H](C)CO)C[C@@H](C)[C@H](CN(C)S(C)(=O)=O)OCCCC[C@@H](C)O3)cc1 | inactive: 1 |
| C[C@H](CO)N1C[C@H](C)[C@@H](CN(C)C(=O)Nc2ccc3c(c2)OCO3)OCCCC[C@H](C)Oc2ccc(NC(=O)c3ccncc3)cc2C1=O | inactive: 0.997 |
| C[C@H]1CN([C@@H](C)CO)C(=O)CCCn2cc(nn2)CO[C@@H]1CN(C)C(=O)c1cc(-c2ccccc2)on1 | inactive: 0.984 |
| C[C@@H]1CN([C@@H](C)CO)C(=O)c2cccc(NC(=O)c3cnccn3)c2O[C@@H]1CN(C)C(=O)Nc1ccccc1 | inactive: 0.951 |
| COc1cc(N)ccn1 | inactive: 1.07 |
| C[C@H](CO)N1C[C@H](C)[C@@H](CN(C)Cc2ccc(C(F)(F)F)cc2)Oc2ccc(NC(=O)NC3CCCCC3)cc2CC1=O | inactive: 0.958 |
| C[C@@H]1CN([C@@H](C)CO)C(=O)c2cc(NC(=O)CCCCCC(=O)Nc3ccccc3N)ccc2O[C@@H]1CN(C)Cc1ccc(-c2ccccc2)cc1 | inactive: 0.961 |
| COc1ccc(S(=O)(=O)N(C)C[C@H]2Oc3ccc(NS(=O)(=O)c4ccc(F)cc4)cc3C(=O)N([C@@H](C)CO)C[C@@H]2C)cc1 | inactive: 0.998 |
| CCc1cnc2c(c1OC)c(=O)n(CC(=O)NCCOC)c(=O)n2C | inactive: 0.98 |
| C[C@H](CO)N1C[C@H](C)[C@H](CN(C)Cc2ccc(-c3ccccc3)cc2)Oc2ccc(NC(=O)Nc3ccc(F)cc3)cc2CC1=O | inactive: 1.04 |
| C[C@@H]1CN([C@@H](C)CO)C(=O)c2cc(NC(=O)NC3CCCCC3)ccc2O[C@@H]1CN(C)C(=O)Nc1cccc2ccccc12 | inactive: 1.01 |
| CCNC(=O)C[C@H]1CC[C@H]2[C@@H](COC[C@@H](O)CN2S(=O)(=O)c2ccc(Oc3ccccc3)cc2)O1 | inactive: 1.01 |
| C[C@@H]1CN([C@H](C)CO)C(=O)c2cccc(NC(=O)NC3CCCCC3)c2O[C@H]1CN(C)Cc1ccc(-c2ccccc2)cc1 | inactive: 0.936 |
| COc1ccc(CN(C)C[C@H]2OCCCC[C@@H](C)Oc3ccc(NC(=O)Nc4c(C)noc4C)cc3C(=O)N([C@H](C)CO)C[C@H]2C)cc1 | inactive: 0.987 |
| C[C@@H]1CN([C@@H](C)CO)C(=O)c2cc(NC(=O)Nc3ccc(C(F)(F)F)cc3)ccc2O[C@@H](C)CCCCO[C@H]1CN(C)S(=O)(=O)c1cn(C)cn1 | inactive: 1.03 |
| C[C@H]1CN([C@@H](C)CO)C(=O)c2cccc(NS(=O)(=O)c3cccs3)c2O[C@H]1CN(C)S(=O)(=O)c1ccccc1 | inactive: 1.02 |
| C[C@@H]1CCCCO[C@@H](CN(C)S(=O)(=O)c2ccccc2)[C@@H](C)CN([C@@H](C)CO)C(=O)c2cc(NS(=O)(=O)c3ccc(Cl)cc3)ccc2O1 | inactive: 1.01 |
| C[C@H](CO)N1C[C@H](C)[C@@H](CN(C)S(=O)(=O)c2cccs2)Oc2ccc(NC(=O)Nc3cccc4ccccc34)cc2C1=O | inactive: 1.02 |
| C=CC[C@H](CC(=O)N(CCO)Cc1ccccc1)C(=O)NC[C@H](OC(=O)[C@@H](CC=C)Cc1ccc(F)cc1)c1ccccc1 | inactive: 1.07 |

| SMILES | relative growth |
| --- | --- |
| COc1ccc(NC(=O)N(C)C[C@H]2OCCCC[C@H](C)Oc3ccc(NC(=O)NC(C)C)cc3C(=O)N([C@@H](C)CO)C[C@@H]2C)cc1 | inactive: 0.988 |
| C[C@@H]1CCCCO[C@H](CN(C)CC2CCCCC2)[C@@H](C)CN([C@H](C)CO)C(=O)c2cc(NC(=O)Nc3ccc(C(F)(F)F)cc3)ccc2O1 | inactive: 1.01 |
| O=C(CN1CCOCC1)NCC[C@H]1CC[C@@H](NC(=O)Nc2ccccc2)[C@H](CO)O1 | inactive: 0.976 |
| Cc1cc(C(=O)Nc2cccc3c2O[C@@H](CN(C)C(=O)NC(C)C)[C@H](C)CN([C@H](C)CO)C3=O)n(C)n1 | inactive: 0.958 |
| C[C@@H]1CCCCO[C@H](CN(C)C(=O)Nc2ccc(C(F)(F)F)cc2)[C@@H](C)CN([C@H](C)CO)C(=O)c2cc(NC(=O)c3ccncc3)ccc2O1 | inactive: 0.995 |
| Cc1noc(C)c1S(=O)(=O)N(C)C[C@@H]1OCCCC[C@@H](C)Oc2ccc(NC(=O)Nc3cccc4ccccc34)cc2C(=O)N([C@H](C)CO)C[C@@H]1C | inactive: 0.998 |
| C[C@@H]1CN([C@H](C)CO)C(=O)c2cc(NS(=O)(=O)c3cccs3)ccc2O[C@@H]1CN(C)S(C)(=O)=O | inactive: 0.981 |
| CCC(=O)N(C)C[C@@H]1Oc2ncc(C#C[C@H](C)O)cc2C(=O)N([C@@H](C)CO)C[C@H]1C | inactive: 1.02 |
| C[C@H](CO)N1C[C@H](C)[C@@H](CN(C)Cc2ccc(Cl)c(Cl)c2)Oc2ccc(NC(=O)Nc3ccc4c(c3)OCO4)cc2C1=O | inactive: 0.979 |
| NNC(=O)CNC(=O)c1ccccc1 | inactive: 0.997 |
| CC(C=CC=C(C)C=CC1=C(C)C(=O)CCC1(C)C)=CC=CC=C(C)C=CC=C(C)C=CC1=C(C)C(=O)CCC1(C)C [CANTHAXANTHIN (euglenanone)] | inactive: 1.05 |
| CN(C)CCCNC(=O)C[C@@H]1CC[C@@H]2[C@H](COC[C@H](O)CN2S(=O)(=O)c2ccc(F)cc2)O1 | inactive: 0.987 |
| C[C@@H]1CCCCO[C@@H](CN(C)C(=O)Nc2ccc3c(c2)OCO3)[C@@H](C)CN([C@@H](C)CO)C(=O)c2cc(NC(=O)Cc3ccccc3)ccc2O1 | inactive: 0.996 |
| C[C@@H]1CN([C@@H](C)CO)C(=O)c2cccc(NC(=O)C3CCCCC3)c2O[C@H]1CN(C)Cc1ccc(Oc2ccccc2)cc1 | inactive: 0.983 |
| COc1ccc(CN(C)C[C@H]2Oc3ccc(NC(=O)Nc4cccc5ccccc45)cc3CC(=O)N([C@@H](C)CO)C[C@@H]2C)cc1 | inactive: 1 |
| CC(C)Cn1c(N)cc(=O)n(C)c1=O | inactive: 1.02 |
| CCOC(=O)[C@@H](N)[C@@H](O)c1ccccc1 | inactive: 0.937 |
| COc1ccc(S(=O)(=O)N(C)C[C@@H]2Oc3ccc(NC(=O)Nc4c(C)noc4C)cc3CC(=O)N([C@H](C)CO)C[C@@H]2C)cc1 | inactive: 0.989 |
| C[C@@H]1CN([C@@H](C)CO)C(=O)c2cc(NC(=O)C3CCCCC3)ccc2O[C@@H]1CN(C)S(=O)(=O)c1cn(C)cn1 | inactive: 1.04 |
| O=C(C[C@@H]1C[C@@H]2c3cc(NC(=O)c4cccnc4)ccc3O[C@@H]2[C@@H](CO)O1)NCc1cc(F)ccc1F | inactive: 0.997 |

| SMILES | relative growth |
| --- | --- |
| COc1ccc(NC(=O)N(C)C[C@H]2OCCCC[C@H](C)Oc3ccc(NS(=O)(=O)c4ccccc4)cc3C(=O)N([C@H](C)CO)C[C@@H]2C)cc1 | inactive: 0.991 |
| O=C(Cn1cc(CN2C(=O)COC[C@H]2c2ccccc2)nn1)N1CCC2(CC1)C(=O)NCN2c1ccccc1 | inactive: 0.991 |
| C[C@@H]1CN([C@H](C)CO)C(=O)Cc2cc(NC(=O)C3CCCCC3)ccc2O[C@@H]1CN(C)Cc1ccc(Oc2ccccc2)cc1 | inactive: 1 |
| CCCC#Cc1cnc2c(c1)C(=O)N([C@H](C)CO)C[C@@H](C)[C@@H](CN(C)S(=O)(=O)c1cn(C)cn1)O2 | inactive: 1.03 |
| C=C/C=C/[C@@H]1C(=C)CN([C@@H](Cc2ccccc2)C(=O)OC)[C@H]1[C@@H](O)CCn1cc(-c2ccc(C(=O)NO)cc2)nn1 | inactive: 0.968 |
| CO[C@@H]1CN(C)C(=O)c2cc(NS(=O)(=O)c3cn(C)cn3)ccc2OC[C@H](C)N(Cc2cccc(F)c2)C[C@@H]1C | inactive: 1.04 |
| Cc1noc(C)c1NC(=O)Nc1ccc2c(c1)C(=O)N([C@@H](C)CO)C[C@@H](C)[C@H](CN(C)Cc1ccncc1)OCCCC[C@@H](C)O2 | inactive: 0.992 |
| COc1ccc(S(=O)(=O)N(C)C[C@H]2Oc3ccc(NC(=O)CCCN(C)C)cc3C(=O)N([C@H](C)CO)C[C@@H]2C)cc1 | inactive: 0.999 |
| C[C@@H]1CN([C@@H](C)CO)C(=O)c2cc(C#Cc3cccc(F)c3)cnc2O[C@H]1CN(C)Cc1ccccn1 | inactive: 1 |
| C[C@H]1CN([C@@H](C)CO)C(=O)c2cc(NC(=O)CCCN(C)C)ccc2O[C@@H]1CN(C)S(=O)(=O)c1ccc(Cl)cc1 | inactive: 1 |
| C/C=C/c1ccc2c(c1)O[C@@H](CN(C)Cc1ccc(C(=O)O)cc1)[C@@H](C)CN([C@H](C)CO)S2(=O)=O | inactive: 0.979 |
| COCC#Cc1ccc([C@@H]2[C@H](CO)N3C(=O)CN(C(=O)CN4CCOCC4)C[C@@H]23)cc1 | inactive: 0.987 |
| C/C=C/c1ccc([C@@H]2[C@@H](CO)N(S(=O)(=O)Cc3ccccc3)C23CN(C(=O)C2CCOCC2)C3)cc1 | inactive: 1 |
| C[C@H](CO)N1C[C@H](C)[C@H](CN(C)C(=O)C2CCOCC2)Oc2cc(-c3ccc(C(=O)N(C)C)cc3)ccc2S1(=O)=O | inactive: 0.98 |
| O=C(C[C@@H]1C=C[C@@H](NC(=O)c2ccc(F)cc2)[C@H](CO)O1)NCc1ccncn1 | inactive: 0.987 |
| Cc1cc(C)c2ccc(Cl)nc2n1 | inactive: 0.976 |
| CNC(=O)Nc1ccc(-c2nc(N3C[C@H]4CC[C@@H](C3)O4)c3cnn(C4CCC5(CC4)OCCO5)c3n2)cc1 | inactive: 1.02 |
| C[C@H]1CN([C@@H](C)CO)S(=O)(=O)c2ccc(-c3ccc(C(=O)N(C)C)cc3)cc2O[C@H]1CN(C)C(=O)Cc1ccccn1 | inactive: 0.985 |
| CN(C)CCCNC(=O)C[C@@H]1C=C[C@H](NS(=O)(=O)c2ccccc2)[C@H](CO)O1 | inactive: 1 |
